This note sets out measurements from article PMC4336329 (PLoS ONE, 2015).

About 14,000 (4.5%) of roughly 310,000 compounds showed an effect of 50% or more. The effect is printed as a negative number. Some of the results follow.
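Further: peak tail current of the secondary pulse compared with the same well before compound.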

The assay deals with human ether-à-go-go-related gene (hERG) potassium channel (human, UniProt Q12809). Nature of the assay: primary screen, population patch clamp on CHO cells stably expressing hERG.
Chain of human ether-à-go-go-related gene (hERG) potassium channel (Q12809 whole entry, looked up): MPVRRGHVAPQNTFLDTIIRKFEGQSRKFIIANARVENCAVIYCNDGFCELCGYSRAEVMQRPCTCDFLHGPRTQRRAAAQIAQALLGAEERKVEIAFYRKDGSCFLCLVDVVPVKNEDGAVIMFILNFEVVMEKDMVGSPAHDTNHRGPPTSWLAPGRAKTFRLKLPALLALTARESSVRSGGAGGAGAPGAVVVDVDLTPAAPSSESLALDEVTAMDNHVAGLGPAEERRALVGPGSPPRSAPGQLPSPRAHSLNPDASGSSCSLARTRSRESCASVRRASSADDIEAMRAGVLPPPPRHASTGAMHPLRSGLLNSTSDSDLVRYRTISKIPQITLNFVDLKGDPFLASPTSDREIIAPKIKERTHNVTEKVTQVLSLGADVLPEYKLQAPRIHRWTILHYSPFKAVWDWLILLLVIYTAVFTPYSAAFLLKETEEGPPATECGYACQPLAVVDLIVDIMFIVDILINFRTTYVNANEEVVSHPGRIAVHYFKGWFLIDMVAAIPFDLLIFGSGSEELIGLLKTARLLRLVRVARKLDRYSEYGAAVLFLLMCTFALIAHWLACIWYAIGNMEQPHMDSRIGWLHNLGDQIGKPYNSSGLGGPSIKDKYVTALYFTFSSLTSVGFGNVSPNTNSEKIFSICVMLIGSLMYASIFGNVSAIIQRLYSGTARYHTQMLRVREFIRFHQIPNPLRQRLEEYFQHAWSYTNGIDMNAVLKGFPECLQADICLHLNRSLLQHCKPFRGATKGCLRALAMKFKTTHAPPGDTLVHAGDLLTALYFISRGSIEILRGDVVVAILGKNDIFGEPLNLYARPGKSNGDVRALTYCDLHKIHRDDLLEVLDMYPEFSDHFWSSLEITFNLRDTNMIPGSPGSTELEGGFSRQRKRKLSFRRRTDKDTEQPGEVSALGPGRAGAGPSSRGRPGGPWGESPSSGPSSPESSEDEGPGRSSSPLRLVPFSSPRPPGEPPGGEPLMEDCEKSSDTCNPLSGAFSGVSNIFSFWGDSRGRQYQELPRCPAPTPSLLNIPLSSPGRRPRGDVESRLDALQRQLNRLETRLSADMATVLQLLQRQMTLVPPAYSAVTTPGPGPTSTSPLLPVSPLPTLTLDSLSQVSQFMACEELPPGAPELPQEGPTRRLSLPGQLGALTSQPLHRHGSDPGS
In the case of `COc1ccccc1C(CNC(=O)COc1cc(C)ccc1Cl)N1CCCC1` (stereo not drawn), the “hERG current change (%, negative = inhibition) at 10uM” value was -32.4%.
With `CC(=O)c1cccc(NC(=O)CSc2nc(=O)n(CCN3CCOCC3)c3c2CCC3)c1` the figure was -17.6%.
With `CCOC(=O)N1CCN(S(=O)(=O)c2ccc(C(=O)NNc3nc4c(C)cc(C)cc4s3)cc2)CC1` the figure was 4.36%; with `CN1C(=O)CC(C(=O)Nc2ccccc2F)SC1=Nc1ccc2c(c1)OCO2` (stereo not drawn), 14.7%; with `COC(=O)c1ccc(-c2ncc(-c3cccc4ccccc34)o2)cc1`, 14.4%.
Turning to `CCOC(=O)C1=C(NC(=S)NC(=O)c2ccccc2)c2ccccc2CC1(C)C`, the “hERG current change (%, negative = inhibition) at 10uM” value is -18.4%.
`NC(N)=N/N=C/c1c(Cl)cccc1Cl`: the “hERG current change (%, negative = inhibition) at 10uM” value was -10.3%.
As to `Cc1c(C(=O)O)sc2nc(SCC(=O)Nc3ccc(S(=O)(=O)NCCCC(=O)O)cc3)[nH]c(=O)c12`, the “hERG current change (%, negative = inhibition) at 10uM” value turned out to be 9.34%.
For the molecule `CCc1oc(C(=O)O)cc1CN(CC)CC.Cl`, the “hERG current change (%, negative = inhibition) at 10uM” value is given as 11.9%.
Under `COc1ccc(C2CC(C(F)(F)F)n3nc(C(=O)Nc4ccc5c(c4)OCO5)cc3N2)cc1` (stereo not drawn) stands 10.5%; under `COc1ccc(NC(C#N)c2ccccc2OCc2ccccc2)cc1` (stereo not drawn), 1.21%; under `Cc1cccc(NCc2ccccc2O)c1`, 7.25%.
With `O=C1CC(N2CCOCC2)C(=O)N1c1ccc(Cl)cc1` (stereo not drawn) the figure was 0.986%.
In the case of `CC(C)(C)S(=O)(=O)c1cnc2c(-c3ccc(Cl)cc3)cnn2c1N`, the “hERG current change (%, negative = inhibition) at 10uM” value stood at 7.81%.
`CC12CCCCC1=NC(c1ccc(Br)cc1)N2O` (stereo not drawn): the “hERG current change (%, negative = inhibition) at 10uM” value was -9.79%.
With `S=c1[nH]nc(-c2ccccc2)n1/N=C/c1cccs1` the figure was -3.65%; with `CCn1c(SCC(=O)Nc2nccs2)nnc1-c1ccccc1`, -3.57%.
Take `COc1ccc(NC(C)=O)cc1S(=O)(=O)Nc1ccc(OCc2ccccc2)cc1`: the “hERG current change (%, negative = inhibition) at 10uM” value turned out to be 17.2%.
Consider `CC(=O)N1CCOc2ccc(S(=O)(=O)N3CC(C)CC(C)C3)cc21` (stereo not drawn), for which the “hERG current change (%, negative = inhibition) at 10uM” value is -14.8%.
With `CCOC(=O)c1sc2cccc(Cl)c2c1N` the figure was 4.12%; with `CCn1c(SCC(=O)N2CCCc3ccccc32)nc2c1c(=O)n(C)c(=O)n2C`, -10.6%.
With `COc1c(Cl)cc(Cl)cc1CNCCO.Cl` the figure was -4.18%.
Under `CCOc1ccc(Oc2cc(N)cc([N+](=O)[O-])c2)cc1` stands -14.5%; under `CN1C(=O)C(C)(C)c2cc(S(=O)(=O)N3CCCC3C(=O)NCc3ccc(F)cc3)ccc21` (stereo not drawn), -1.37%.
As for `CCOc1ccc(C(=O)C(c2ccccc2)N2CCOCC2)cc1.Cl` (stereo not drawn), the “hERG current change (%, negative = inhibition) at 10uM” value is -10.4%.
On to `Cc1ccc(NC(=O)CN2C(=O)c3ccccc3C2=O)cc1`, for which the “hERG current change (%, negative = inhibition) at 10uM” value came to 19.9%.
Regarding `O=C(Nc1cccc(-c2cn3ccccc3n2)c1)c1cc2ccccc2oc1=O`, the “hERG current change (%, negative = inhibition) at 10uM” value is on record as 15.1%.
With `COc1ccc2c(=O)c3c(=O)n(Cc4ccco4)c(-c4ccccc4)nc3oc2c1` the figure was -32.2%.
Consider `COc1cccc(C2=NOC(C(=O)NC(C)(C)C)C2)c1` (stereo not drawn), for which the “hERG current change (%, negative = inhibition) at 10uM” value was 9.93%.
As for `C=CCNC(=S)NCC1COc2ccccc2O1` (stereo not drawn), the “hERG current change (%, negative = inhibition) at 10uM” value was determined as 19.6%.
Take `O=C(c1ccc(=O)n(Cc2ccccc2)n1)N1CCN(C/C=C/c2ccccc2)CC1`: the “hERG current change (%, negative = inhibition) at 10uM” value is reported as -51.9%.
Take `COc1ccccc1NC(=O)Cn1cnc2c(nnn2-c2ccc(C)cc2)c1=O`: the “hERG current change (%, negative = inhibition) at 10uM” value came to 5.06%.
On to `Cc1ccc(OCc2cc(C(=O)N3CCN(C)C[C@@H]3c3ccccc3)no2)cc1C`, for which the “hERG current change (%, negative = inhibition) at 10uM” value was -19.4%.
As to `CC(C)OC(=O)Cn1c(=O)oc2ccccc21`, the “hERG current change (%, negative = inhibition) at 10uM” value amounted to 7.64%.
With `Cc1ccc(C(=O)N/C(=C\c2ccc(C)o2)C(=O)O)cc1` the figure was 10.8%; with `Cl.SC(COCc1ccccc1)CN1CCN(Cc2ccc3c(c2)OCO3)CC1` (stereo not drawn), -11.6%.
For `O=C(CN1CCCC1)N/N=C/c1ccc(-c2cccc(Cl)c2)o1`, the “hERG current change (%, negative = inhibition) at 10uM” value was -62.2%.
With `CC1SC(c2ccccc2Cl)NC1=O` (stereo not drawn) the figure was 20.1%; with `CC(C)N(C(=S)NC1CCCCC1)c1ccccc1`, 16.8%.
As to `CCOC(=O)C1CCN(S(=O)(=O)c2ccc3[nH]c(=O)ccc3c2)CC1`, the “hERG current change (%, negative = inhibition) at 10uM” value was -45.3%.
Consider `O=C(O)/C=C/C(=O)Nc1ccc(Cl)c(C(=O)O)c1`, for which the “hERG current change (%, negative = inhibition) at 10uM” value is 17.8%.
With `CCc1ccc(N2C(=O)Cc3c2nc(N)c(C#N)c3N)cc1` the figure was 5.29%; with `Cc1ccc(Nc2nnc(SCC(=O)c3ccc(O)cc3O)s2)cc1`, 18.4%.
In the case of `Cn1nc(C(=O)Nc2cccnc2)c2ccccc2c1=O`, the “hERG current change (%, negative = inhibition) at 10uM” value is on record as 1.21%.
`C#CCOc1ccc(/C=C2/C(=O)ON=C2C)cc1Br`: the “hERG current change (%, negative = inhibition) at 10uM” value is 16.2%.
